Measurements from US20160289298A1 (ACCELERON PHARMA, published 2016).

Key:
BMP5 = biological target: T1, BMP5 (UniProt P22003 317-454, limits assumed); test: Biacore; receptor-Fc captured with anti-Fc antibody, ligand injected; ligands ranked by off-rate
T1 sequence (looked up): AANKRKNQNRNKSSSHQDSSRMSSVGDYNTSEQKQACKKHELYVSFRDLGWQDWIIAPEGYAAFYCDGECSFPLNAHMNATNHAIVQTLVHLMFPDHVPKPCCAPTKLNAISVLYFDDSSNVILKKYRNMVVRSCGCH
Method: Ligands were injected and allowed to flow over the captured receptor protein.

activin A = biological target: T2, activin A (UniProt P08476 311-426); test: SPR (Biacore), receptor-Fc captured by anti-Fc antibody, ligand injected
T2 sequence (looked up): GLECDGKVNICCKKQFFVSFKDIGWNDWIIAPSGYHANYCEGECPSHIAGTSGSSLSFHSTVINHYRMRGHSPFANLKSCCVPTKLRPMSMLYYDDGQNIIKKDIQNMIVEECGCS

activin B = biological target: T3, activin B (UniProt P09529 293-407); test: as above
T3 sequence (looked up): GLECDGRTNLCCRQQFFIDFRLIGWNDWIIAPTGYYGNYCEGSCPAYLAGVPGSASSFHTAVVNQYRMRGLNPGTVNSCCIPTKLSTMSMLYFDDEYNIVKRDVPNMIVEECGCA

Measured: binding result

B1: ActRIIA-Fc homodimeric complex (Fc fusion)
chain: not shown
notes: also called homodimeric ActRIIA-Fc; not shown: linker and Fc portion of the homodimer
binds: all assays above
